# From PubChem BioAssay AID624296 (National Center for Advancing Translational Sciences (NCATS), 2012)
# Hit rate of the full screen: of about 350,000 compounds, about 9,900 (2.8%) were called active. Inconclusive means that the source gave no clear call. Such entries were picked first, then a sample of the others. Calls follow the shape of the dose curve; as a rule, active = well fitted activation curve with a large enough effect; inconclusive = small, poorly fitted or top-dose-only effect; inactive = no such curve, though single readings can be large or run the other way. No potency is given beside an inconclusive call; the fits are too rough.
# Assay: A quantitative high throughput screen for small molecules that induce DNA re-replication in MCF 10a normal breast cells. Also: nearly all actives have a fitted effect of over 50% in size.
# Conditions: MCF 10A DNA re-replication, Hoechst nuclear intensity, 48 h; series mostly up to 46.1 µM
# Potency is read from the fitted curve at half-maximal effect; tags tell the direction and shape of the fitted curve.
row,Compound,Potency
1,COc1ccc(NC(=O)Nc2nc3c(s2)CCCC3)cc1,inactive
2,Cn1cnc([N+](=O)[O-])c1Sc1nc(N)nc2c1ncn2C1CC(O)C(CO)O1 (stereo not given),active: 2.06 µM
3,CCC(=O)[C@@]1(C)[C@H](C)C[C@H]2[C@@H]3CCC4=CC(=O)C=C[C@]4(C)[C@H]3[C@@H](O)C[C@@]21C,"inconclusive [activator, full curve, poor fit]"
4,CC(=O)c1cccc(NC(=O)/C(=C/c2ccncc2)NC(=O)c2ccccc2)c1,inactive
5,COc1ccc(OC)c(-c2nnc3n2N=C(c2ccc(OC)c(OCC4CC4)c2)CS3)c1,"inconclusive [activator, partial curve, poor fit]"
6,Cc1ccc(C(=O)C=CNNC(=O)c2ccccc2)cc1,inactive
7,CCOc1ccc(N(CCC#N)S(=O)(=O)c2ccc(OC)cc2)cc1,"inconclusive [activator, partial curve, poor fit]"
8,O=C(C1=C[C@@H](c2ccc3c(c2)OCO3)C[C@@H](OCc2ccc(CO)cc2)O1)N1CCOCC1,inactive
9,CS(=O)(=O)N1CCCC(C(=O)NCc2ccco2)C1 (stereo not given),"inconclusive [activator, partial curve, poor fit]"
10,COC(=O)CC1=NN(c2ccc(OC)cc2)C(=O)C1,"inconclusive [activator, single point]"
11,CCOC(=O)C1CCN(CC(O)COc2ccc(C(C)(C)C)cc2)CC1 (stereo not given),"inconclusive [activator, single point]"
12,O=[N+]([O-])c1cccnc1N1CCN(Cc2ccc3c(c2)OCO3)CC1,inactive
13,S=C(c1ccc(N2CCCC2)c(Br)c1)N1CCCCC1,"inconclusive [activator, partial curve, poor fit]"
14,COc1ccc(C2=C(SC)CC2=NC(C)(C)C)cc1,inactive
15,CC1=NN(c2ccc(C)c(C)c2)C(=O)C1C(c1cccc(O)c1)C1C(=O)N(c2ccc(C)c(C)c2)N=C1C (stereo not given),"inconclusive [activator, single point]"
16,COC(=O)c1cccc(C(=O)N2CCCC(CCC(=O)N(C)CCc3ccccn3)C2)c1 (stereo not given),inactive
17,O=S(=O)(NCc1cccnc1)c1cccn1-c1ncc(C(F)(F)F)cc1Cl,"inconclusive [activator, partial curve, poor fit]"
18,Cn1cc(CN2CCCC(C(=O)c3cccs3)C2)c(-c2cccc(Cl)c2)n1 (stereo not given),"inconclusive [activator, single point]"
19,CCCNC(=O)c1nc(C)n(-c2ccc([N+](=O)[O-])cc2)n1,inactive
20,CCn1c(SCC(=O)Nc2cccc(F)c2)nnc1-c1cc2cc(Br)ccc2o1,"inconclusive [activator, single point]"
21,Cc1ccc(-c2nc(NCC3CCCO3)sc2C)cc1 (stereo not given),inactive
22,CCOC(=O)c1[nH]c2cc(OC)c(OC)cc2c1NC(=O)CN(C)C1CCCCC1,inactive
23,CCN(CC)S(=O)(=O)c1ccc(N2CCCC2)c(NC(=O)c2ccc([N+](=O)[O-])o2)c1,"inconclusive [activator, single point]"

row,Compound,Potency
1,O=C(Nc1cccc(-c2csc(Nc3ccccc3)n2)c1)c1ccccc1,"inconclusive [activator, single point]"
2,CC(=O)Oc1cccc(N2C(=O)c3ccc(C(=O)Nc4cccnc4)cc3C2=O)c1,inactive
3,COc1cccc(N(CC(=O)N2CCOCC2)S(C)(=O)=O)c1,inactive
4,Cn1cccc1/C=N/NC(=O)c1cccnc1,"inconclusive [activator, single point]"
5,C=CCn1c(SCn2nnc3ccccc3c2=O)nnc1C1CCCCC1,"inconclusive [activator, partial curve, poor fit]"
6,CCOc1ccc(N(C)c2ccc(/C=C3/SC(=S)NC3=O)cc2)cc1,active: 4.11 µM
7,CC/C(=N\O)c1ccc(OC)c(OC)c1,"inconclusive [activator, partial curve, poor fit]"
8,CSc1ccc(C2=CC(=O)C[C@H](c3ccc(F)cc3)C2)cc1,"inconclusive [activator, single point]"
9,COc1ccc(C(=O)NC(Cn2ccnc2)C(C)(C)C)cc1OC1CCN(C(C)C)CC1 (stereo not given),inactive
10,O=C(C1=C[C@H](c2ccc(C(F)(F)F)cc2)C[C@H](OCc2ccc(CO)cc2)O1)N1CCCCCCC1,"inconclusive [activator, single point]"
11,Cc1cccnc1NC(=S)NCCc1ccccc1,inactive
12,Cc1ccc(C)c(N2CCN(C(=O)CCc3nc(-c4ccccc4Cl)no3)CC2)c1,"inconclusive [activator, partial curve, poor fit]"
13,CC1CCCN(CCCNC(=O)c2cc3c(s2)-c2ccccc2OC3)C1 (stereo not given),"inconclusive [activator, single point]"
14,O=C(Cn1nnc(-c2cc(Cl)ccc2-n2cnnn2)n1)N1CCCc2ccccc21,"inconclusive [activator, partial curve, poor fit]"
15,CCc1cc(=O)oc2cc(C)c(CN3CCCC3)c(O)c12,"inconclusive [activator, partial curve, poor fit]"
16,Cc1ccc(NC(=O)Nc2cnccn2)cc1,inactive
17,N=c1c(C(=O)NCCc2ccccc2)cc2c(=O)n3ccccc3nc2n1Cc1ccco1,active: 9.2 µM
18,OCCNc1nc(-c2cccnc2)nc2ccccc12,"inconclusive [activator, full curve, poor fit]"
19,CCC1CCC2(CC1)NC(=O)N(CC(=O)Nc1cc(C)on1)C2=O (stereo not given),"inconclusive [activator, partial curve, poor fit]"
20,Cc1cc(NC(=O)CCCN2C(=O)c3cccnc3C2=O)no1,inactive
21,COc1ccc(/C=C/CN2CCN(Cc3ccc(F)cc3)C(CCO)C2)cc1 (stereo not given),"inconclusive [activator, partial curve, poor fit]"
22,O=C(CNC(=O)c1ccccc1F)NC1CCN(Cc2ccccc2)CC1,inactive
